Data on 90 molecules can be found in article PMC4336329 (PLoS ONE, 2015).

Among all 310,000 compounds or so, about 14,000 (4.5%) showed an effect of 50% or more. The effect is printed as a negative number. This is one part of the list.
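Further: peak tail current of the secondary pulse compared with the same well before compound.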

human ether-à-go-go-related gene (hERG) potassium channel, sequence (Q12809 whole entry, looked up): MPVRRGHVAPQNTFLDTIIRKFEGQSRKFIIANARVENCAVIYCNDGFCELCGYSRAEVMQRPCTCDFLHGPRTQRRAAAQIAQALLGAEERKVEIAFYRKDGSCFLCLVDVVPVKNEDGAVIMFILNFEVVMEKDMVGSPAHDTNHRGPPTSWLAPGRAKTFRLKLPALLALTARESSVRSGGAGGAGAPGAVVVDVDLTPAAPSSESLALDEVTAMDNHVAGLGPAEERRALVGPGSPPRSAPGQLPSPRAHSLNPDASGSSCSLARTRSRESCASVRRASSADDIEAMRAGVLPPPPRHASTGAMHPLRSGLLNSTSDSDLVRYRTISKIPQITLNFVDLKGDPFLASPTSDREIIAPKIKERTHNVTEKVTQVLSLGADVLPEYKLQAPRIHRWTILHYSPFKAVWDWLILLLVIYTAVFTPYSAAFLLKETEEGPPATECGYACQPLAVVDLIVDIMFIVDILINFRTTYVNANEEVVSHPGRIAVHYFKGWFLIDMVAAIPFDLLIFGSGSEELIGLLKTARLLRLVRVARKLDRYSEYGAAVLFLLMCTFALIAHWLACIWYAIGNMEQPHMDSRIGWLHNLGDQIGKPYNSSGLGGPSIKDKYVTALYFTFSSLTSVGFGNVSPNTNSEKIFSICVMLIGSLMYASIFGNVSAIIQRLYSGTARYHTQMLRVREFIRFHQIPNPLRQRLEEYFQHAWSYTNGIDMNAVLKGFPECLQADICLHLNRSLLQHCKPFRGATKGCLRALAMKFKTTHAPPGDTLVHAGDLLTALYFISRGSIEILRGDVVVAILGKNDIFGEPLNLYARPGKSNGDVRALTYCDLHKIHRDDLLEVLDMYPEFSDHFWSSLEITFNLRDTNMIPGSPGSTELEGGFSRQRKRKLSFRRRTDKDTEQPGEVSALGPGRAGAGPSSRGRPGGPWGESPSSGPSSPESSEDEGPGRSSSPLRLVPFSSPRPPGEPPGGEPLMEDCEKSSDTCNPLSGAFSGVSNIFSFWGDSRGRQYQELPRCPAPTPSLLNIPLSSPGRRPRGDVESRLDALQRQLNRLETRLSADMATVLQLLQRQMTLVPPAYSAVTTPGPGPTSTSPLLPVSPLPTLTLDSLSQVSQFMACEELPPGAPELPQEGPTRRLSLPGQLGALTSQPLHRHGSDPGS

The experiment has as its target human ether-à-go-go-related gene (hERG) potassium channel (human, UniProt Q12809). In words: primary screen, population patch clamp on CHO cells stably expressing hERG.
In the case of `COc1ccc(-c2[nH]ncc2CN(Cc2nccn2C)C(C)C)c(F)c1`, the “hERG current change (%, negative = inhibition) at 10uM” value is recorded as -39.7%. For `O=C(NCC(=O)N(c1ccc(Cl)cc1)C(C(=O)NC1CCCC1)c1ccncc1)c1ccco1` (stereo not drawn) the value was -5.29%; for `COc1ccccc1NC(=S)N1CCN(c2ccc(F)cc2)CC1`, 14.6%. For `CCOc1ccc(C(c2c(C)n(C)n(-c3ccccc3)c2=O)c2c(C)n(C)n(-c3ccccc3)c2=O)c(O)c1` the value was 12.9%; for `O=c1c2ccccc2nc(-c2ccc([N+](=O)[O-])cc2)n1O`, 10.4%; for `CCOc1ccc(C(=O)N2CCCCCC2)cc1`, 2.03%.

As for `O=C(c1ccc(COc2ccc(Cl)cc2)o1)N1CCN(Cc2ccc3c(c2)OCO3)CC1`, the “hERG current change (%, negative = inhibition) at 10uM” value is given as -12.7%. For `COc1ccc(CNC(=O)COC(=O)CCOc2ccccc2)cc1` the value was 7.75%; for `O=C(O)c1ccccc1CSc1nc2ccccc2[nH]1`, 13.6%. On to `Cl.OCCN1CCN(CCOc2cccc(Cl)c2)CC1`, for which the “hERG current change (%, negative = inhibition) at 10uM” value was -15.6%. As for `COc1ccc(C)cc1S(=O)(=O)NC1CCCC1`, the “hERG current change (%, negative = inhibition) at 10uM” value is reported as 13.3%. Take `COc1ccc(C(C)NC(=O)C2CCCC2)cc1` (stereo not drawn): the “hERG current change (%, negative = inhibition) at 10uM” value worked out at 15.1%. `O=C(/C=C/c1cccc(Cl)c1)NCCCN1CCOCC1`: the “hERG current change (%, negative = inhibition) at 10uM” value was 4.19%.

Consider `Cc1cccc(-n2c(-c3csc4ccccc34)n[nH]c2=S)c1`, for which the “hERG current change (%, negative = inhibition) at 10uM” value was 5.78%. For `COc1ccc(-c2[nH]c(-c3ccccc3)nc2SCC(=O)Nc2nccs2)cc1` the value was -18%; for `CCCc1cc(C(=O)NCc2ccccc2)no1`, -18.4%. On to `CN(C)S(=O)(=O)c1ccc(C(=O)Nc2cccc(C(=O)N3CCOCC3)c2)cc1`, for which the “hERG current change (%, negative = inhibition) at 10uM” value came out at 0.431%.

On to `CCOC(=O)c1cc(C)n(S(=O)(=O)c2ccc(C)cc2)c1C`, for which the “hERG current change (%, negative = inhibition) at 10uM” value is recorded as -2.18%. The result for `CN(C)/C=N/c1nc2nccc(-c3ccc(F)cc3)n2n1` reads 13.8%.

For `COc1ccc(CNC(=O)COC(=O)c2ccccc2OCC(=O)Nc2ccc(SC(F)F)cc2)cc1`, the “hERG current change (%, negative = inhibition) at 10uM” value is on record as 6.66%. For `Cc1ccccc1Oc1nc2c(C)cccn2c(=O)c1/C=C(\C#N)C(=O)NC1CCS(=O)(=O)C1` (stereo not drawn) the value was -19.8%.

With `CC(=O)N1CCN(c2ccc(NC(=O)c3ccc4ccccc4c3)cc2)CC1`, the “hERG current change (%, negative = inhibition) at 10uM” value was -7.05%.

For `CN(C(=O)c1ccccc1C(=O)c1ccccc1)C1CCS(=O)(=O)C1` (stereo not drawn), the “hERG current change (%, negative = inhibition) at 10uM” value is 15.5%.

Consider `CCOc1ccc(-c2cc(C(=O)OC)[nH]n2)cc1`, for which the “hERG current change (%, negative = inhibition) at 10uM” value is 2.77%.

For the molecule `O=C(Nc1nc(-c2cc(F)ccc2F)cs1)c1cccc(N2C(=O)CCC2=O)c1`, the “hERG current change (%, negative = inhibition) at 10uM” value is listed as -2.22%. For `CCOC(=O)Nc1cc(Br)c2c(c1)OCCO2` the value was -6.45%; for `Fc1ccc(Nc2ncnc3sccc23)cc1`, 2.35%; for `CC(C)(C)c1ccc(C(=O)NNC(=O)CCC(=O)Nc2ccccc2)cc1`, -5.91%. For `CCN(CC)CCNS(=O)(=O)c1ccc(/C=C/C(=O)O)cc1` the value was 21.8%. For `Cc1ccc(S(=O)(=O)N2CCN(C(=O)CN3CCCC3)C2)cc1` the value was -6.28%. On to `CCOc1ncnc2c1oc1nc(CC(C)C)c3c(c12)CC(C)(C)OC3`, for which the “hERG current change (%, negative = inhibition) at 10uM” value was 3.47%. For `CCC(C)NC(=O)c1ccccc1NC(=O)C(C)N(c1ccccc1)S(C)(=O)=O` (stereo not drawn) the value was -5.98%; for `CCOC(=O)C1(Cc2ccc(Cl)cc2)CCN(C(=O)c2sc(C)nc2C)CC1`, -52.9%; for `Cc1cc(N)ccc1N1CCCC1.Cl`, -1.82%. For `CCOC(=O)CC1(NC(=O)c2cc(COc3cncc(Cl)c3)on2)CCCCC1` the value was -18.8%. For `O=C(C(=O)N1CCN(c2cccc(Cl)c2)CC1)c1c[nH]c2ccccc12` the value was 3.75%; for `CCSc1nsc(NC(=O)Nc2cccc(C(C)=O)c2)n1`, 10.5%. With `O=C(NC(=O)N1CCOCC1)c1ccccc1`, the “hERG current change (%, negative = inhibition) at 10uM” value is listed as 8.08%. For `COc1ccc(C(OC(=O)c2ccco2)C(=O)NCc2ccco2)cc1` (stereo not drawn) the value was 20.9%.

For `COc1cccc(C2=NN(C(=O)c3ccc(C)o3)C(O)(C(F)(F)F)C2)c1` (stereo not drawn), the “hERG current change (%, negative = inhibition) at 10uM” value turned out to be 26.3%. For `O=C(Cc1ccccc1)Nc1ncccn1` the value was 4.2%. On to `COc1cc(OC)cc(C(=O)Oc2c(CN3CCOCC3)cc(Cl)c3cccnc23)c1`, for which the “hERG current change (%, negative = inhibition) at 10uM” value is on record as -15.5%. The result for `Cc1nc2sccn2c(=O)c1S(=O)(=O)NCC(C)c1ccccc1` (stereo not drawn) reads -3.59%; that for `CC(NC(=O)c1ccccc1[N+](=O)[O-])C1CC2CCC1C2` (stereo not drawn), 5.96%.

On to `CCOc1cc(-c2n[nH]c(=S)n2Cc2ccccc2)ccc1OC(F)F`, for which the “hERG current change (%, negative = inhibition) at 10uM” value came to 10.9%. For `CN(Cc1ccc(F)cc1)C(=O)CCc1nnc(-c2ccccc2)o1` the value was 3.07%; for `CCCc1nnc(NC(=O)CCC(=O)NCc2ccc(Cl)cc2Cl)s1`, 21.6%. Consider `COc1cc(C(=O)Nc2ccc(C)cc2C(NCC(=O)NN)c2ccccc2)cc(OC)c1OC` (stereo not drawn), for which the “hERG current change (%, negative = inhibition) at 10uM” value turned out to be 15.1%.

Regarding `Cc1cc(-c2ccc(Cl)cc2)n2nc(C)cc2n1`, the “hERG current change (%, negative = inhibition) at 10uM” value is 4.45%. For `Cc1nn(-c2ccc(C(=O)O)cc2)c(=O)c2ccccc12` the value was 9.56%; for `COc1cc(CN(C2CCCCC2C)S(=O)(=O)c2ccc(S(=O)(=O)NC3CC3)cc2)cc(OC)c1OC` (stereo not drawn), -8.6%. Turning to `Cc1cc(=O)[nH]c(N/N=C/c2ccc(-c3ccc([N+](=O)[O-])cc3)o2)n1`, the “hERG current change (%, negative = inhibition) at 10uM” value is listed as -6.34%. The result for `O=c1[nH]c(SCc2ccccc2)nc2ccsc12` reads 5.3%; that for `CCSc1nnc(NC(=O)c2cc(OC)c(OC)c(OC)c2)s1`, 3.21%. The result for `CCCc1cc(C(=O)N2CCCC(N3CCN(c4ccccc4C)CC3)C2)n(C)n1` (stereo not drawn) reads -35.8%. The result for `O=C(NNS(=O)(=O)c1ccccc1)c1ccccc1-n1cccc1` reads 6.21%; that for `Cc1cc(C)cc(NC(=S)NCC2CCCO2)c1` (stereo not drawn), 10.4%; that for `CCOC(=O)c1nn(-c2ccc(C)c(C)c2)c(=O)c(C#N)c1C`, 9.47%.

For `CCO[C@H]1OC(C(=O)N2CCOCC2)=C[C@@H](c2ccc(C(F)(F)F)cc2)[C@@H]1CCCO`, the “hERG current change (%, negative = inhibition) at 10uM” value is on record as -26.3%. For `CN1CCN(c2cc(N3CCCC3)c([N+](=O)[O-])cc2F)CC1` the value was -9.86%. The result for `O=C(Cn1cnc2ccccc2c1=O)c1ccc2ccccc2c1` reads -7.53%; that for `CCN1CCN(C(=O)Nc2cccc3ccccc23)CC1`, -1.52%. For `COc1ccc(OC)c(/C=C2\SC(=S)N(N3CCOCC3)C2=O)c1` the value was 14.5%.

In the case of `CN(CC(=O)Nc1ncn[nH]1)S(=O)(=O)c1cc(Cl)ccc1Cl`, the “hERG current change (%, negative = inhibition) at 10uM” value is -31.5%. For `O=C(CP(=O)(CO)CO)c1ccc(Cl)cc1`, the “hERG current change (%, negative = inhibition) at 10uM” value was -3.45%. As to `CCN(CC)CC#CCC(O)(c1ccccc1)c1ccc(Br)cc1.Cl` (stereo not drawn), the “hERG current change (%, negative = inhibition) at 10uM” value is reported as -50.1%. For `CC(=O)n1cc(N(C(=O)CCl)c2ccc(C)cc2)c2ccccc21` the value was -5.35%. For the molecule `O=C1c2ccccc2C(O)N1Cc1ccc2c(c1)OCO2` (stereo not drawn), the “hERG current change (%, negative = inhibition) at 10uM” value stood at 9.2%. The result for `CC(C)N(CCNC(=O)c1cn(C)c2ccc(S(=O)(=O)N(C)C)cc2c1=O)Cc1ccccc1` reads -19.4%; that for `OC1(c2cn(Cc3ccccc3)nn2)CCCCC1`, 5.04%. The result for `CC1Cc2ccccc2N1C(=O)CSc1nnc(C2CC2)n1C` (stereo not drawn) reads 17.6%; that for `CC(OC(=O)c1cccc(S(=O)(=O)N2CCCC2)c1)C(=O)c1ccccc1` (stereo not drawn), 3.47%. `O=C(COC(=O)c1ccccn1)NNC(=O)c1ccc([N+](=O)[O-])cc1`: the “hERG current change (%, negative = inhibition) at 10uM” value is reported as -5.1%. The result for `O=C(Cc1nn[nH]n1)NCc1ccccc1Cl` reads -26.7%; that for `CCN(c1ccccc1)S(=O)(=O)c1ccc(Cl)c(C(=O)OCC(=O)c2[nH]c(C)c(C(C)=O)c2C)c1`, -22.6%; that for `CC(C)N(CCO)C(=O)C(c1ccccc1)c1ccccc1`, 1.24%. For `CC1NC(=O)N(C)[C@@H]2NC(=O)N(C)C(c3ccc([N+](=O)[O-])cc3)[C@@H]12` (stereo partly drawn) the value was 7.29%; for `CSCCC(NC(=O)c1ccco1)C(=O)N1CCN(Cc2ccccc2)CC1` (stereo not drawn), -30.6%; for `CC1(C)CC2CC(C)(CN2Cc2c(O)ccc3ccccc23)C1` (stereo not drawn), -49.2%. The result for `O=C(NCCC1=CCCCC1)c1cc(COc2c(F)cccc2F)on1` reads 9.37%; that for `Cc1noc(C(=O)Nc2c(C)nn(Cc3ccccc3)c2C)c1Cl`, 4.71%. With `Cc1ccc2nc(SCc3cn4c(C)cc(C)nc4n3)[nH]c2c1`, the “hERG current change (%, negative = inhibition) at 10uM” value was -20.9%. For `COc1ccc(N(C)C2=NS(=O)(=O)c3ccccc32)cc1` the value was 6.85%; for `CC(C)(CO)CNC(=O)CC1C(=O)NCCN1CC(c1ccccc1)c1ccccc1` (stereo not drawn), 23.3%; for `Cc1cc(Cl)c(S(=O)(=O)N2CCN(c3ccccn3)CC2)cc1OCC(N)=O`, 17.6%. For `COc1ccc(CN2CCNC(=O)C2CC(=O)NCc2cc(C)n(C)n2)c(F)c1` (stereo not drawn) the value was 7.8%; for `O=C(Nc1cccc(F)c1)C1CC(=O)N(c2ccc(Cl)cc2)C1` (stereo not drawn), -13.6%. As to `Nc1n[nH]c(-c2ccccc2)n1`, the “hERG current change (%, negative = inhibition) at 10uM” value is recorded as 2.6%. As for `CCN1CCN(C(=O)CN2C(=O)c3ccccc3S2(=O)=O)CC1.Cl`, the “hERG current change (%, negative = inhibition) at 10uM” value is -7.48%. The result for `COc1ccc(CNC(=O)c2cc(C)nc3ccccc23)cc1OC` reads 8.87%.
